# The source gives no read counts; variants with many changes may rest on few reads.
# B1: LINE1-mini (parent)
# chain: GGCAGAGCUCAACACAGCGUGGCAAAGUGGCUGUGGCUAGACUGCC
# Variants of: B1
# Assay: self-cleavage, relative activity (ratio to wild type); higher = more cleavage; in vitro, sequencing; the parent is a self-cleaving ribozyme
row,Variant,self-cleavage
1,G7U C13A C31A C42U C46U,0.1
2,G7U G30C A41U C45A,0.01
3,G7U C37G A41G,0.02
4,G7U G21U U34C,0.08
5,G7U C13U G21U A24C U32A A41U,0.12
6,G7U G19C A41G,0.12
7,G7U C13A A14G C37A C42U U43G G44C,0.05
8,G7U G29A A41U,0.45
9,G7U G17A C23A A26U,0.01
10,G7U C15G A24U A26U,0.07
11,G7U G29A G35A A39U,0.05
12,G7U C13A G33U,0.07
13,G7U C13A G33A,0.12
14,G7U C18U C46G,0.04
15,G7U C23A G30C G40A,0.23
16,G7U C18U U34G,0.1
17,G7U G22C U34C,0.04
18,G7U G21A C45A,0.11
19,G7U C18U C31U A41U,0.02
20,G7U C18U C23U C42U,0.21
21,G7U C37U A41U,0.06

row,Variant,self-cleavage
1,G7U G30U U34A G40A A41U,0.01
2,G7U G29U G44C,0.02
3,G7U C10U C42G,0.03
4,G7U C18U C45G,0.65
5,G7U G21U C37G U38A,0
6,G7U C13G U20C A24C A25C G40A C45A,0.01
7,G7U G19C G30C C42U,0.04
8,G7U G21C C45G,0.07
9,G7U G30U U32C G33U C46G,0.07
10,G7U G27U U34G,0.03
11,G7U C31A G33C C45A,0.01
12,G7U C13A G19C G27C G44A,0
13,G7U C10U C13A G17C,0.03
14,G7U G22U G30A A39U C42G,0.04
15,G7U C15U G19U G44C,0.17
16,G7U G17C G35U A41G U43C,0.07
17,G7U G19C A24G,0.05
18,G7U G21U G35A G44C,0
19,G7U C10G C15U G29A C37U U38C,0
20,G7U G30U C31U U34A,0.01
21,G7U G21U G35A,0.15

row,Variant,self-cleavage
1,G7U G35U G40C,0.1
2,G7U G30A G33U G40C,0.13
3,G7U G33C G44U,0.06
4,G7U C15A G21C,0.13
5,G7U C15G U28G,0.07
6,G7U C10G C13A C31G G40A,0.01
7,G7U C15G G27C C37G,0.01
8,G7U C23U A26U G27C U38A A41G,0.02
9,G7U G21U U38G A41G,0.03
10,G7U C15A A39U,0.09
11,G7U C15A A39G,0.14
12,G7U G19U G22C G35A,0.08
13,G7U G19C A39G,0.03
14,G7U G27A C31A U34A,0.05
15,G7U G22U G35U C45G,0.22
16,G7U G35A U38C A41G C42U U43C,0.01
17,G7U G19U U32C U43G,0.04
18,G7U G35A G40U G44A,0.03
19,G7U C10G C13A G33A G36A G40A G44A,0.02
20,G7U C15A A24U G27C U28A,0.1
21,G7U C10U C42A U43C C45G,0.02

row,Variant,self-cleavage
1,G7U C18A U20C,0.03
2,G7U G17C G27C U34G,0.04
3,G7U G17U G22A,0.47
4,G7U G17U G22U G33A C42A,0.46
5,G7U C10U G22C,0.03
6,G7U C15G G19U C45A,0.25
7,G7U C18G A39G,0.01
8,G7U C23A U28C G30A G40U,0.07
9,G7U C13A C18A A24C A26G C31A A39G,0
10,G7U C15U G17C,0.07
11,G7U G17C U20G U28C U43C,0.05
12,G7U C13A G29A,0.2
13,G7U C13A G29U,0.11
14,G7U C13U G36A,0.07
15,G7U C31A G33U G40A C45U,0.09
16,G7U C15G G21A G44A C46G,0.08
17,G7U G22U G36A A41U,0.18
18,G7U C23U G29U C45A,0.01
19,G7U G21A G36U,0.02
20,G7U C15A G21U C31A,0.03
21,G7U C13G C15G,0.21
